We go through 88 sequences from the supplement of paper PMC11417369.

This is one part of the list.

The subject of this test is PF3D7_0420300 AP2 domain 1 (GST-tagged). Briefly: gcPBM binding intensity (ln(normalized median fluorescence intensity)); higher = stronger DNA binding. An outline of the steps:
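DNA-binding domains from P. falciparum, fused to GST and produced in E. coli, were put on an Agilent 4 × 180k double-stranded probe array for 1 h in 1× PBS holding 1% milk, 0.2 mg/ml BSA, 0.5% salmon testes DNA and 0.03% Triton X-100. Probes were primer-extended, 36 bp long and drawn from intergenic genomic regions, with negative controls included. After Alexa488 anti-GST antibody detection and a 488 nm scan, binding intensity was set as the highest Masliner-normalised natural-log median intensity across replicate spots of either probe orientation.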
In the case of “AATAAATAAAAAATTACACACATATTTATAAATATA [CACACA_site7584]”, the “gcPBM binding intensity (ln)” value was 9.54.
For the sequence “AAGATAAACTTTTTTAATTAATTTAATTTTTTTTTT [GTGCAC_negctrl_site386]”, the “gcPBM binding intensity (ln)” value came out at 8.98.
As for “ATATATATATATATTCCACACACACCCAAAAAAAAA [CACACA_site9215]”, the “gcPBM binding intensity (ln)” value turned out to be 9.84.
In the case of “TAAAATAAGTTAAAAAGTACATAATTATAATAAATA [XGTACX_site8108]” it was 9.29; in that of “CACAAAAATAAATATAAACACACAATAAATAAATAA [CACACA_site8197]”, 9.75.
The value for “TTTGTTTTTATTTACACATGCAAAAAAAAAAAAAAA [TGCATGCA_site655]” was 8.66; that for “TTATAATAGTTAATATGTACATATTTAATAAATAAT [XGTACX_site3183]” was 9.09; that for “TATGTGTATAATAAAAGTACATATATTATTATATAA [XGTACX_site8556]” was 9.21.
In the case of “TATTTCGTAATTTAATAATATACAAGAAATATATAT [XGTACX_negctrl_site143]” it was 8.95; in that of “ATTGACGTCATATAAACATGCACATTTTGGATGTTT [TGCATGCA_site985]”, 9.19.
For “TAAAATAATAAAACAACACACAAATAGTTAAAATAG [CACACA_site1680]”, the “gcPBM binding intensity (ln)” value amounted to 9.92.
The value for “CATATAATAAAAAATGTACACACATAAGAAAATTTA [CACACA_site8943]” was 9.68.
Consider “TAAATATAATAAGAACAAACAAAATAGTACAATATA [TGCATGCA_negctrl_site364]”, for which the “gcPBM binding intensity (ln)” value is 9.6.
The value for “TTTTTTTTAAATTGTGGTACACAAATTCATATATAT [XGTACX_site8944]” was 8.98; that for “TGTTAACTTAAAAAAATACCTACGGAAAAATCACAA [TGCATGCA_negctrl_site433]” was 9.3.
The value for “GTCATATTATTATTACGTACTTAAATATATAATATA [XGTACX_site3405]” was 9.26; that for “AAAAGAAAAAAAAGTACACACATGTATATTAATCGT [CACACA_site2528]” was 9.79; that for “ATTCAAAATTATAGGTGTACGTATTTTTTTTTTTTT [XGTACX_site7177]” was 9.29.
On to “AGATGATATAATGGCACACAAATATTTTATTATAAA [CACACA_site3553]”, for which the “gcPBM binding intensity (ln)” value was 9.38.
The value for “TAAATTTATAAATCACGTACATATTTATTTATATTT [XGTACX_site4532]” was 9.19; that for ATAATTTCATAATACGTGCACATAATATATAAAAAA was 9.17.
On to “TACTATTTAAAATATGAACACACATTATTTGTTTTA [CACACA_site8870]”, for which the “gcPBM binding intensity (ln)” value amounted to 9.35.
Take “CACAAAAATAAACACACACACATATATATTTATTAT [CACACA_site5923]”: the “gcPBM binding intensity (ln)” value was 10.2.
With “TAAATTAAAAGACACACACACAAAAAAAAAAAAAAA [CACACA_site7131]”, the “gcPBM binding intensity (ln)” value was 9.66.
The value for “GGAAACTAAAGGAATAAAACTATGGAAATTAATTAA [CACACA_negctrl_site1647]” was 9.2; that for “TTTTACACTTTTTTTTGTACACACTAAAAAGATTAA [XGTACX_site8407]” was 9.21.
In the case of “AAAGGTTCATAAAAATGTACATAATTATTTACATGT [XGTACX_site2722]” it was 9.12; in that of “CAAATCATATATAGCACACAAATTCTTTATTATTAT [CACACA_site2815]”, 9.38; in that of “CTGATCCACATTTATACACACCTCGGTTTGTAGAGA [CACACA_site4393]”, 9.64.
Take “AAAATATATAATATTTGTACATATTGATGGCAACAG [XGTACX_site6454]”: the “gcPBM binding intensity (ln)” value was found to be 9.3.
On to “ATATGAATATATATATGTACTAATTAGTAGTTTACG [XGTACX_site6273]”, for which the “gcPBM binding intensity (ln)” value came out at 9.4.
Take “AATAAAAATATATCCACACACATATATATATATGTA [CACACA_site576]”: the “gcPBM binding intensity (ln)” value worked out at 9.56.
The value for “GAAGATATGTAAAATTGTACATATTATTTTATTTTA [XGTACX_site5302]” was 9.06; that for “AGAAATTTACAAATACGTACACACATATATATATAT [XGTACX_site3141]” was 9.66; that for TCATAACAACTTTGTGTGCACATAAAACATGTATAT was 9.53.
In the case of “TATAAGACATGATATATACACACCTTGTTTTAATTT [CACACA_site2266]”, the “gcPBM binding intensity (ln)” value was found to be 9.41.
As for “TTTTTTTTTTCATTCACACAAAAAAAAAAAATTTAT [CACACA_site5921]”, the “gcPBM binding intensity (ln)” value is 8.72.
In the case of “AAGTATGGAAAGGAATATAAATTAATACTTTCATTG [XGTACX_negctrl_site131]”, the “gcPBM binding intensity (ln)” value was found to be 9.08.
In the case of “CTTATATATTGCCCTTCACACACACCCATATATATA [CACACA_site8795]” it was 10.1.
For the sequence “AAGACAACATAAATATGTACATATATTTATTATTTT [XGTACX_site1792]”, the “gcPBM binding intensity (ln)” value was 9.21.
The value for “TACAAAAAGAATGAAAAATATATAATAAAAATAAAA [XGTACX_negctrl_site159]” was 9.23; that for “CACATACCTATATACACACACAAAATAATAAAATAA [CACACA_site7150]” was 10.
In the case of “ACTAATATTTTATAAAGTACAAATTAATAAAATTCA [XGTACX_site5817]” it was 9; in that of “AGAATGGATTAGCTAGCACACACAAAAAAAAAAAAA [CACACA_site8995]”, 9.26.
For “TATATATATATATTGACACACATGTATTTCAATATT [CACACA_site2832]”, the “gcPBM binding intensity (ln)” value was 9.33.
In the case of “ATATATATATGTAAGAGTACACAAAAATATGTATGT [XGTACX_site4335]” it was 9.5.
“TTTTGTAGATATGACTGTACATATTTTATACATAAC [XGTACX_site971]”: the “gcPBM binding intensity (ln)” value stood at 9.19.
The value for “AAAAAATAAATAAATACACACAAATATATATATATA [CACACA_site2543]” was 9.6; that for “AAGAAAAAAAAAATTACACACTGCGCAGATACACAA [CACACA_site1289]” was 9.69; that for “TGGTAATCCACATACACACACACATACACATATATA [CACACA_site2727]” was 10.1.
As to “TAATATGTATATAAAAGTACAGACGATTATAATTAT [XGTACX_site173]”, the “gcPBM binding intensity (ln)” value was found to be 9.57.
Regarding “AAATAAATAAAAAACACACACAAATAAATAAATATA [CACACA_site2249]”, the “gcPBM binding intensity (ln)” value is 10.1.
Consider “TATTTTTTCCTTTGTTTTTTAAACTATCTTAACTAA [XGTACX_negctrl_site519]”, for which the “gcPBM binding intensity (ln)” value came to 9.23.
The value for “ATATAATAAATATATTGTACATATGAATCTACTAAA [XGTACX_site7610]” was 9.05; that for “TAAAAAATGATAGAAGTGCATAAAATAATATATATA [GTGCAC_site9904]” was 9.43.
The value for “TTTCTATTTCCTTCACATCTTTTCATCTTTTTTTTT [CACACA_negctrl_site1110]” was 9.71; that for “GACTTGAAGAAATAAGTGCAGAGTTTTATTTTAATT [GTGCAC_site9912]” was 9.12; that for “AAAAAATTCCTATATACACACACGCACATATTTATA [CACACA_site6192]” was 9.82.
For the sequence “AAGGAATATATATACATACACACATATATATATATA [CACACA_site1665]”, the “gcPBM binding intensity (ln)” value came out at 9.43.
In the case of “AGTGGATGAGGACATACACACACACCGAAGTTGATA [CACACA_site9132]” it was 9.77; in that of “AAAAAAAAAAAAAAAAAAAAAAATATATATATATAT [XGTACX_negctrl_site33]”, 9.26.
In the case of “AATAAAAAGGAAAGGTATATGTGTGCCCTTGTGTTA [TGCATGCA_negctrl_site83]” it was 9.43; in that of “AAATTTTCATGTGTTGCATGCTGAACTATTTTATCA [TGCATGCA_site856]”, 9.19.
Regarding “TACACCATGATACATACACACAGACATATACTCATT [CACACA_site4708]”, the “gcPBM binding intensity (ln)” value is 9.77.
In the case of “TCCAAATGTTTGCGTTGTACTCTTTTTTTAAAACTA [XGTACX_site5148]” it was 9.28; in that of “CCTGAAATTTTATTATGTACATATTATAAAATGATT [XGTACX_site1434]”, 9.02; in that of “TGGCACTAAAAAAATAAACACACAGATTTATATAAT [CACACA_site8386]”, 9.47.
In the case of “ATAACCACATAAAATATAATTATATATATATATATA [CACACA_negctrl_site603]” it was 9.26.
The value for “ATTCCTCCCATGGAATGTACTCATCAAATAAATAAA [XGTACX_site6543]” was 8.94; that for “TTTATTAATAAGAAATGTACACAAAATTATTTCCAA [XGTACX_site5970]” was 9.02.
Take “ATAGAGTCATTCCTCACACACACGCTATATGAATAG [CACACA_site2047]”: the “gcPBM binding intensity (ln)” value is 9.86.
In the case of “TAATTAAAATTAAGAAGTACATTTTACTTTTAATGC [XGTACX_site5120]” it was 9.
Turning to “AAAAAATACTTATAAAGTACTAATATATATAAGCAG [XGTACX_site743]”, the “gcPBM binding intensity (ln)” value was found to be 9.33.
In the case of “GAGAAATTTATACATACACACATATATATATTATAT [CACACA_site4038]” it was 9.55; in that of TATCATGTTTTTATGGTGCATGAAATCACACATTGA, 9.
In the case of “AATACAAACCAAAAAGTAAATACATCAACATGATCA [CACACA_negctrl_site140]” it was 9.56; in that of “CAAATATGTCTTATTCGTACACATATATATATATAT [XGTACX_site8817]”, 9.44.
On to “AAGAAAATAAAAAATAAGCATAATATGATATGATAT [TGCATGCA_negctrl_site196]”, for which the “gcPBM binding intensity (ln)” value is 9.62.
In the case of “TTTCTTTATAAATTAATATTCACAACACAAAATATA [CACACA_negctrl_site450]” it was 8.99; in that of “AAAAATTTGGCATACACACACACACCGACACAGACA [CACACA_site4489]”, 10.1.
As to “GTGCATATAAGGAAGTGTACGAAAAAAAATATTCCA [XGTACX_site8490]”, the “gcPBM binding intensity (ln)” value was found to be 9.2.
In the case of “AGTTATATGATTAATACACACAACAAATGTTTCTTC [CACACA_site1092]” it was 9.49; in that of “AATTTGGTGTGTGTAAAAGTATGTGTCTATATTTAT [GTGCAC_negctrl_site166]”, 9.84; in that of “ATGTATGTTTATTACTATTTTGAGAATAGACTATAA [CACACA_negctrl_site1366]”, 8.97.
The value for “AAGAATCATATTTAAACACACATACAGATATATATA [CACACA_site5787]” was 9.51.
In the case of “ACGACTAAATATATGAGTACATATATATATAAATAT [XGTACX_site7522]” it was 9.25.
On to “TGCAAAAAATTCCACACACACACACCCATATAAATA [CACACA_site1230]”, for which the “gcPBM binding intensity (ln)” value stood at 10.
In the case of “TCTAAAATAAATAATGCATGTTAAAAAAAAATATAT [TGCATGCA_site562]” it was 9.33.
